The results in this text go back to the supplement of paper PMC10126150.

Sequences with one replicate were seen in a single cluster, so their values are uncertain.
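Further: ATP exposure 15 min at 22 °C before imaging.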

For the series, the system named is ATP. Description: switch fluorescence ratio, 500 uM ATP over buffer (Cy3 cluster intensity, sum of 5 cycles each) (fold (ratio)); higher = stronger signal-on switching upon ATP binding; sequences stand for … in TCGTCGGCAGCGTCAGATGTGTATAAGAGACAGTTTTTTTTTTTTTTTTTTTTTTTTT…TC. Particulars: aptamer strand: ATP DNA aptamer (quencher-CACCTGGGGGAGTATTGCGGAGGAAGG + anchor), 100 nM annealed; ATP concentration: 500 uM; one replicate. A digest of the protocol:
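The quencher-labelled ATP aptamer, at 100 nM, was annealed to Cy3-labelled switching-strand clusters on a modified Illumina MiSeq flow-cell. The clusters were imaged in selection buffer, then after 15 min with 500 uM ATP at 22 °C, and this buffer/ATP cycle ran five times with NaOH stripping and re-annealing between runs. Per-cluster fluorescence ratios, summed target-cycle over summed buffer-cycle Cy3 intensity, were averaged per switch-domain sequence. Clusters outside 100-1000 RFU were excluded.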
For the sequence GCTTGAGCTG, the switch fluorescence ratio turned out to be 1.02.
The figure for CCCTGGGGCT is 0.973.
The figure for AAGGGTGGCG is 1; for GCCTGAAATA it is 1.02; for GACGTGCTGT it is 0.993.
The figure for AGGTATCATT is 0.966; for TTGGTCAAGA it is 0.908.
In the case of AAATTTAGA, the switch fluorescence ratio was 1.
For the sequence GGTCAAGAGA, the switch fluorescence ratio is 1.
The figure for TGAAAAGTAT is 1.18; for GTATCGGGGT it is 0.966; for GGTGTTTGGT it is 0.99.
The figure for CGTCAGAGCT is 0.968.
The figure for GAATTGACA is 1.03.
As for TGCGCGTGGA, the switch fluorescence ratio turned out to be 0.969.
The figure for AAGGGGTGAT is 1.01.
With ACAAAAAGCA the figure was 0.999; with TTCTTCTT, 0.979; with TAAGTCGTCT, 1.01.
With ACGTACTCCC the figure was 1.52; with TGAATTAAGA, 1.04.
Regarding TGGGCTAAAA, the switch fluorescence ratio was 1.01.
The figure for TAGGGTATAC is 1.07; for CATTGGGAGC it is 1.03.
With CATGATCCTC the figure was 1.09; with GTATGAGGCC, 0.947.
Regarding CGCTGTGGGG, the switch fluorescence ratio amounted to 0.976.
The figure for TAGCCGACGC is 1.94.
With ATATCAATTG the figure was 1.02; with TCTGTA, 1.03.
With GTAATATATC the figure was 1.04.
For CGTTGACATT, the switch fluorescence ratio was 0.996.
With GAGTTTGGAG the figure was 0.99.
With GTTAATCAGG the figure was 0.972; with ATCTGCCTGA, 0.98; with ATTGGTGTA, 1.03.
With AGGTGGAGGC the figure was 0.98; with GATTCGG, 1; with ATAAGTTATA, 0.979.
Regarding GCAGCTTTTG, the switch fluorescence ratio was determined as 1.02.
The figure for GCAGGGCTGC is 1.04; for GGGCTATCGT it is 1.08; for TCCGATCATG it is 1.11.
With GTGCTTTCTA the figure was 0.978; with TGCTTATCGA, 0.95.
With ATGTAAGGGA the figure was 0.998.
With TCGTGTTCC, the switch fluorescence ratio came to 1.08.
The figure for TCTATGGGGC is 0.989.
Turning to TAGTTTAAAG, the switch fluorescence ratio is 0.994.
With CTCGTCAACC the figure was 1.42.
With GAATTGCGT the figure was 1; with TCGAAGCAAC, 4.48; with CCCGAAGTTA, 1.14.
The figure for TAGTGTGGTT is 0.959.
As for CATTGCGGAG, the switch fluorescence ratio turned out to be 1.02.
With ACTCATGATT the figure was 1.04.
With GTGGGCACGA the figure was 0.991.
With TCCTACACGT the figure was 1.12; with GATTGAAGGC, 1.04; with GGTAAAGATG, 0.981.
In the case of CTCTCCAGCC, the switch fluorescence ratio worked out at 2.32.
With CGACACACCT the figure was 1.62; with CACAGCGTA, 1.06; with CAAATTAGTT, 0.998.
With AAAGGATAA the figure was 1.02.
As for CAGTCTAGC, the switch fluorescence ratio worked out at 0.977.
With ATGAAGTGT the figure was 0.97; with TCGTCTGGTG, 1.03; with TCTCGCTTGT, 1.03.
With CACAAGGCAA the figure was 0.98.
The figure for GTTGGGCTTC is 1.01.
In the case of CCAGGCCAAG, the switch fluorescence ratio is 1.01.
Regarding TGGATTCGCG, the switch fluorescence ratio turned out to be 0.995.
The figure for TGCGCTGACT is 1.03.
Consider AAAGCCGCAA, for which the switch fluorescence ratio stood at 2.64.
With AGCGGGAGAC the figure was 0.994; with TTGGATTGTG, 0.982.
Turning to TGTGGGTGT, the switch fluorescence ratio worked out at 1.04.
Take TTATGAACCG: the switch fluorescence ratio was 1.01.
